# According to article doi:10.1101/2022.11.04.515170:
# Target: T1, GFP-SNX32 WT (UniProt Q86XE0)
# T1 sequence: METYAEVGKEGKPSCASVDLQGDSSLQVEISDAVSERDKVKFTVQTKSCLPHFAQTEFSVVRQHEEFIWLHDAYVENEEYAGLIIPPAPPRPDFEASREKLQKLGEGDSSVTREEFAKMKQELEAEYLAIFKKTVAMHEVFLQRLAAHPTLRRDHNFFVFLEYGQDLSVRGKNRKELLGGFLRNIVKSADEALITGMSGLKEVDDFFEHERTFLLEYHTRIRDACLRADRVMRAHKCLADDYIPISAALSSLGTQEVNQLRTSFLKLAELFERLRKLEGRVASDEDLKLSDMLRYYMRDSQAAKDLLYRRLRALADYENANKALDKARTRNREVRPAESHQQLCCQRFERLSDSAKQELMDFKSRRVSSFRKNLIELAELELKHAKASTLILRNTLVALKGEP
# Test: co-IP
substance,measurement,value
"Cation Independent Mannose-6-Phosphate Receptor (a stretch of the chain, chain not printed)",ratio of CIMPR to GFP band intensity,0.38
